Measured values: article PMC5062570 (Nature Communications, 2016)
Values joined by “and” are separate entries in the source; they are usually repeats but may differ in a detail not shown here. Equal entries are not always repeated.

Columns and labels:
[1] = biological target: PF-7802-labelled proteins in ARPE-19 cells (Homo sapiens, UniProt P05165)
[2] = biological target: PF-7802-labelled proteins in ARPE-19 cells (Homo sapiens, UniProt P07951); settings: TPM2 Tropomyosin beta chain (P07951)
[3] = biological target: PF-7802-labelled proteins in ARPE-19 cells (Homo sapiens, UniProt Q9NR12); settings: protein PDLIM7 PDZ and LIM domain protein 7 (Q9NR12); replicates in separate columns
UniProt Q9NR12, sequence (Q9NR12 whole entry, the tested form may be a part): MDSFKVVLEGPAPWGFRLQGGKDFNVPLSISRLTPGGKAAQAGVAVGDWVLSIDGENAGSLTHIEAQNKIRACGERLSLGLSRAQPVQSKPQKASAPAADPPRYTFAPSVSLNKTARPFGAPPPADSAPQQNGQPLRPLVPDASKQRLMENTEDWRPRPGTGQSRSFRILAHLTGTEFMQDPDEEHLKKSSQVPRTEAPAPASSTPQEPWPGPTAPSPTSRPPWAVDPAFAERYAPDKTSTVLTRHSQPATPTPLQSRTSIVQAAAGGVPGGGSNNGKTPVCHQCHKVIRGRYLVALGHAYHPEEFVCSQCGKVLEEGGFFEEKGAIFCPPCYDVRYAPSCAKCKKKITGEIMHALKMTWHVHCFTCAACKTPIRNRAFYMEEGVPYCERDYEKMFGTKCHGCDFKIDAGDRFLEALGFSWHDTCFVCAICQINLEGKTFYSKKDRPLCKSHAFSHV

[4] = biological target: PF-7802-labelled proteins in ARPE-19 cells (Homo sapiens, UniProt Q9NX14); settings: protein NDUFB11 NADH dehydrogenase [ubiquinone] 1 beta subcomplex subunit 11, mitochondrial (Q9NX14); replicates in separate columns
[5] = biological target: PF-7802-labelled proteins in ARPE-19 cells (Homo sapiens, UniProt P08582); settings: protein MFI2 Melanotransferrin (P08582); replicates in separate columns
[6] = biological target: PF-7802-labelled proteins in ARPE-19 cells (Homo sapiens, UniProt P13164); settings: protein IFITM1 Interferon-induced transmembrane protein 1 (P13164); one column per replicate
UniProt P13164, sequence (P13164 whole entry): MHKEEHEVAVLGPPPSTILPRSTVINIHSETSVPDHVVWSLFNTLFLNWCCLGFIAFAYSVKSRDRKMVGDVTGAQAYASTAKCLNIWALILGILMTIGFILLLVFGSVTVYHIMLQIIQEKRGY

[7] = biological target: PF-7802-labelled proteins in ARPE-19 cells (Homo sapiens, UniProt P83731); settings: protein RPL24 60S ribosomal protein L24, P83731
[8] = biological target: PF-7802-labelled proteins in ARPE-19 cells (Homo sapiens, UniProt P16402); settings: P16402 HIST1H1D Histone H1.3
UniProt P16402, sequence (P16402 whole entry): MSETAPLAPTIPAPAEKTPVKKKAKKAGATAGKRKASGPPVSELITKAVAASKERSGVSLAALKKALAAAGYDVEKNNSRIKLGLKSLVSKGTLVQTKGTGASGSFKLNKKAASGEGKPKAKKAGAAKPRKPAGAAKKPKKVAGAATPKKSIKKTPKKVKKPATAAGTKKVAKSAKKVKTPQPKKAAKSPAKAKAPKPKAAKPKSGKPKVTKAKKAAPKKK

[9] = biological target: PF-7802-labelled proteins in ARPE-19 cells (Homo sapiens, UniProt P0CG39)
UniProt P0CG39, sequence (P0CG39 whole entry): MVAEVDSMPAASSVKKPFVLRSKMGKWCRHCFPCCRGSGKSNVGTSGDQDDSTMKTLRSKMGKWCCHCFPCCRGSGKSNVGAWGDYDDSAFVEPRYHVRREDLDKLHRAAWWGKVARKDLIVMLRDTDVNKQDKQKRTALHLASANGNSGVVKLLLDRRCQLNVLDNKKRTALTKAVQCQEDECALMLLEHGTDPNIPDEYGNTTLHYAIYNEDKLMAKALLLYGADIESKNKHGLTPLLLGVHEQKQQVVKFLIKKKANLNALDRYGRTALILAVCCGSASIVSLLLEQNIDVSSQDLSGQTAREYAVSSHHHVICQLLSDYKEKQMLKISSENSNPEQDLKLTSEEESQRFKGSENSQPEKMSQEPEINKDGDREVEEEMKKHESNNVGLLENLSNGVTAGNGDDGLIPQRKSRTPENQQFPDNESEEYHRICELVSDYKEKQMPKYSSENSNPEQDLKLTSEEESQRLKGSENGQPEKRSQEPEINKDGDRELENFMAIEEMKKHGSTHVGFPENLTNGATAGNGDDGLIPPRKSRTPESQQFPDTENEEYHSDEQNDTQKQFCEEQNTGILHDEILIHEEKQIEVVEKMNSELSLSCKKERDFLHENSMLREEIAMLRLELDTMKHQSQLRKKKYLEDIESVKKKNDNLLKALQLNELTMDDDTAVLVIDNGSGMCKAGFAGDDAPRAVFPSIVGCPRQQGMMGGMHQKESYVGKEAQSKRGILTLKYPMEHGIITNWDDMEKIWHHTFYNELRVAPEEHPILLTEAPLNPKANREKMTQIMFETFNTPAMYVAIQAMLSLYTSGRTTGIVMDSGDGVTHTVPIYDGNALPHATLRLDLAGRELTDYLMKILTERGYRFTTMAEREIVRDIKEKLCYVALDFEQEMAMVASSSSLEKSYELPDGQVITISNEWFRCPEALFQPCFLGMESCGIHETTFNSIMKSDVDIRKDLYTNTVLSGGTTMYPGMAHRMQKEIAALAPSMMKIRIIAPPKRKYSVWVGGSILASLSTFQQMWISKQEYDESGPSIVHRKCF

[10] = biological target: PF-7802-labelled proteins in ARPE-19 cells (Homo sapiens, UniProt P38646)
[11] = biological target: PF-7802-labelled proteins in ARPE-19 cells (Homo sapiens, UniProt O43707); settings: O43707 ACTN4 Alpha-actinin-4
[12] = biological target: PF-7802-labelled proteins in ARPE-19 cells (Homo sapiens, UniProt Q96QV6); settings: Q96QV6 HIST1H2AA Histone H2A type 1-A
[13] = biological target: PF-7802-labelled proteins in ARPE-19 cells (Homo sapiens, UniProt P21333); settings: P21333 FLNA Filamin-A
[14] = biological target: PF-7802-labelled proteins in ARPE-19 cells (Homo sapiens, UniProt Q07954); settings: protein LRP1 Prolow-density lipoprotein receptor-related protein 1 (Q07954); replicates in separate columns
[15] = biological target: PF-7802-labelled proteins in ARPE-19 cells (Homo sapiens, UniProt P0DTE8); settings: protein AMY1C Alpha-amylase 1 (P04745)
[16] = biological target: PF-7802-labelled proteins in ARPE-19 cells (Homo sapiens, UniProt P62316); settings: SNRPD2 Small nuclear ribonucleoprotein Sm D2 (P62316)
UniProt P62316, sequence (P62316 whole entry, the tested form may be a part): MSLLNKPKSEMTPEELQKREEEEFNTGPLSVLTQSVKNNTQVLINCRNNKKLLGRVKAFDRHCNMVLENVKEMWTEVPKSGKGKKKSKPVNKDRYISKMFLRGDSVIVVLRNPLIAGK

[17] = biological target: PF-7802-labelled proteins in ARPE-19 cells (Homo sapiens, UniProt Q14847); settings: protein LASP1 LIM and SH3 domain protein 1 (Q14847); replicates in separate columns
[18] = biological target: PF-7802-labelled proteins in ARPE-19 cells (Homo sapiens, UniProt Q8TCT9); settings: protein HM13 Minor histocompatibility antigen H13 (Q8TCT9); one column per replicate
UniProt Q8TCT9, sequence (Q8TCT9 whole entry): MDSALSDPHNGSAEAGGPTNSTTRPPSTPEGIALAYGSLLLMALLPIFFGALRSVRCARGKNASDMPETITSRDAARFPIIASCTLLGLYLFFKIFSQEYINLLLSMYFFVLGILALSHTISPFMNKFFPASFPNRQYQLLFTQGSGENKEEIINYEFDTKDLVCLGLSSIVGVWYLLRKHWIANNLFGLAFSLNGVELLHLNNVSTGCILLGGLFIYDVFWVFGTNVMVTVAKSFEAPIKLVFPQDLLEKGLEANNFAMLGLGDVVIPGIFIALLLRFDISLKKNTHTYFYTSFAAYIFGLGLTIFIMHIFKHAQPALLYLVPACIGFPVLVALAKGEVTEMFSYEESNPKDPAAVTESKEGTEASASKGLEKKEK

[19] = biological target: PF-7802-labelled proteins in ARPE-19 cells (Homo sapiens, UniProt Q16881); settings: TXNRD1 Thioredoxin reductase 1, cytoplasmic (Q16881)
UniProt Q16881, sequence (Q16881 whole entry, the tested form may be a part): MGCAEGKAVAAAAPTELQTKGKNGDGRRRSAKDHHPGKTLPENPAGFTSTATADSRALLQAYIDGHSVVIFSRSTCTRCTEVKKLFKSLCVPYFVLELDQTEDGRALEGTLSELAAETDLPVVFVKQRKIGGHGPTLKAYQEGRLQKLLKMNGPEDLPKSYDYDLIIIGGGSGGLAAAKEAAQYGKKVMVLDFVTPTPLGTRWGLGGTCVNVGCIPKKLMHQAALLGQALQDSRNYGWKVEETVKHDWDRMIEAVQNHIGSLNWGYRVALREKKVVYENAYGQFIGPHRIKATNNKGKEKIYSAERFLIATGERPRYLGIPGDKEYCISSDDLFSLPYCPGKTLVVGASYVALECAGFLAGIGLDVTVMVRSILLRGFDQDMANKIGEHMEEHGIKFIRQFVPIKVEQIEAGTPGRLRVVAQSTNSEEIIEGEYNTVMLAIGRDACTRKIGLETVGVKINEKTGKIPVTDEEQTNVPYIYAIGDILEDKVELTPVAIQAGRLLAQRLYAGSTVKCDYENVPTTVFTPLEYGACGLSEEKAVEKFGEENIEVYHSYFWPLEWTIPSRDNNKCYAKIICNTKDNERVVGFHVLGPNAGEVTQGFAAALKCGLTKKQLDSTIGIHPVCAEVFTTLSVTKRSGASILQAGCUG

[20] = biological target: PF-7802-labelled proteins in ARPE-19 cells (Homo sapiens, UniProt O00151); settings: protein PDLIM1 PDZ and LIM domain protein 1 (O00151); replicates in separate columns
[21] = biological target: PF-7802-labelled proteins in ARPE-19 cells (Homo sapiens, UniProt O43847); settings: protein NRD1 Nardilysin (O43847); replicates in separate columns
[22] = biological target: PF-7802-labelled proteins in ARPE-19 cells (Homo sapiens, UniProt P99999); settings: protein CYCS Cytochrome c (P99999)
UniProt P99999, sequence (P99999 whole entry): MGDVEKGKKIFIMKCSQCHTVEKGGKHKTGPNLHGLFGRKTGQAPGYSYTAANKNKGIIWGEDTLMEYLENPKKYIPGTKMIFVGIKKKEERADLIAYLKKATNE

[23] = biological target: PF-7802-labelled proteins in ARPE-19 cells (Homo sapiens, UniProt P78386); settings: protein KRT85 Keratin, type II cuticular Hb5 (P78386); replicates R1-R4 in separate columns
UniProt P78386, sequence (P78386 whole entry): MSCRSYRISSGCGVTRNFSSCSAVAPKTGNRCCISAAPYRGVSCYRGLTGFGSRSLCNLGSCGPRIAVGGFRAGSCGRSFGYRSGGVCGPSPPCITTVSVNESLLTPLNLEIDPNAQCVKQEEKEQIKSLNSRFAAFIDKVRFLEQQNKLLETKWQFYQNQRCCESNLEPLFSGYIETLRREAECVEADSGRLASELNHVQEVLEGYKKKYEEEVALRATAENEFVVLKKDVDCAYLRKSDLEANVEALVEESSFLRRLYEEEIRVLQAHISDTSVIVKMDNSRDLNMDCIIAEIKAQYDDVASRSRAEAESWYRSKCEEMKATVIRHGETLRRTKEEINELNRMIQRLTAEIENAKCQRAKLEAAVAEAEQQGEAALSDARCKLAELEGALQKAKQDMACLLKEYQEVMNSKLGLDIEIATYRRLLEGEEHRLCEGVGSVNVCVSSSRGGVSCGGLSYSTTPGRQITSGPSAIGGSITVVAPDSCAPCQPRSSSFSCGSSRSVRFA

[24] = biological target: PF-7802-labelled proteins in ARPE-19 cells (Homo sapiens, UniProt Q06830); settings: protein PRDX1 Peroxiredoxin-1, Q06830
UniProt Q06830, sequence (Q06830 whole entry): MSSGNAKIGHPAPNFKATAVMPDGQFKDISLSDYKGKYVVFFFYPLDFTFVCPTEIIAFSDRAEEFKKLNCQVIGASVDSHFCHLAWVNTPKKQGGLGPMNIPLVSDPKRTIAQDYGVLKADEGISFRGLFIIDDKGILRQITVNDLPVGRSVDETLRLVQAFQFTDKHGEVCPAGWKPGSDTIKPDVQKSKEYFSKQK

[25] = biological target: PF-7802-labelled proteins in ARPE-19 cells (Homo sapiens, UniProt Q9UHD8); settings: SEPT9 Septin-9 (Q9UHD8)
UniProt Q9UHD8, sequence (Q9UHD8 whole entry): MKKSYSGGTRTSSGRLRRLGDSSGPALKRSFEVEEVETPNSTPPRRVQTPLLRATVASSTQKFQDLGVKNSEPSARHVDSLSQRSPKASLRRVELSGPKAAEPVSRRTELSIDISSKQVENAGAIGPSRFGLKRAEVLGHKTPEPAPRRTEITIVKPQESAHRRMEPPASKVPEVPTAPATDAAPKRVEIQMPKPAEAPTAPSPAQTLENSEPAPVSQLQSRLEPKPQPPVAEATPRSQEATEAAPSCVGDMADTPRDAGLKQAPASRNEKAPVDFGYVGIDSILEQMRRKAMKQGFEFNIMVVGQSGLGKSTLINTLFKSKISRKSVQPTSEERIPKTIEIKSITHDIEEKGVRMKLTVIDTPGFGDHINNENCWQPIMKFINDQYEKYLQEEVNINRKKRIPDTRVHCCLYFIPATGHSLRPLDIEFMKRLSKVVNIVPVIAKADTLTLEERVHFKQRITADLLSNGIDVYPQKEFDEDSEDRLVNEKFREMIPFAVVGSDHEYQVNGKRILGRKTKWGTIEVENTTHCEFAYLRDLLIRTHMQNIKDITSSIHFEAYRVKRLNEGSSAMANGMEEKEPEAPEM

[26] = biological target: PF-7802-labelled proteins in ARPE-19 cells (Homo sapiens, UniProt P05556); settings: protein ITGB1 Integrin beta-1 (P05556); one column per replicate
[27] = biological target: PF-7802-labelled proteins in ARPE-19 cells (Homo sapiens, UniProt P51572)
UniProt P51572, sequence (P51572 whole entry): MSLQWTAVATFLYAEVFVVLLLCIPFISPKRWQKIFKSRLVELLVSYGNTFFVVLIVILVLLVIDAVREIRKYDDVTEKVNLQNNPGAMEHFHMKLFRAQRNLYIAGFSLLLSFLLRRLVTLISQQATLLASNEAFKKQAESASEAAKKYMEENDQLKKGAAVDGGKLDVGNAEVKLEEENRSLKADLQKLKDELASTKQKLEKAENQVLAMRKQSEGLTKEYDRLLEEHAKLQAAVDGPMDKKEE

UniProt P07951, sequence (P07951 whole entry, the tested form may be a part): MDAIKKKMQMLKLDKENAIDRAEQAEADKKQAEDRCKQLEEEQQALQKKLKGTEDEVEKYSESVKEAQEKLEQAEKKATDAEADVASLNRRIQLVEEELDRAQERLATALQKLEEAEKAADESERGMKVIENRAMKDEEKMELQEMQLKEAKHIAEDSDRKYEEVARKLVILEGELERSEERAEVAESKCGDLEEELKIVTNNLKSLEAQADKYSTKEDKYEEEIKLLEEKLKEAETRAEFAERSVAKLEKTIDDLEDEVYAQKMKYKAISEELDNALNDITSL

## CNC1CCN(C(=O)C[C@@H](Cc2ccccc2)C(=O)N[C@@H](CSC)C(=O)N[C@@H](CC2CCCCC2)[C@@H](O)C(=O)OC(C)C)CC1 [CP-108671, reference compound]
[1]; P05165 PCCA Propionyl-CoA carboxylase alpha chain, mitochondrial
  SILAC ratio (DMSO/CP-108671): 0.91
[1]; protein PCCA Propionyl-CoA carboxylase alpha chain, mitochondrial (P05165), replicates in separate columns
  Median SILAC Ratio (Heavy/Light): 1.139 and 0.7997
[2]
  Median SILAC Ratio (Heavy/Light): 1.679
[3]
  Median SILAC Ratio (Heavy/Light): 2.345
[4]
  Median SILAC Ratio (Heavy/Light): 1.135
[5]
  Median SILAC Ratio (Heavy/Light): 0.8641
[6]
  Median SILAC Ratio (Heavy/Light): 0.4522
[7]
  Median SILAC Ratio (Heavy/Light): 2.257
[8]
  SILAC ratio (DMSO/CP-108671): 0.89
[9]; P0CG39 POTEJ POTE ankyrin domain family member J
  SILAC ratio (DMSO/CP-108671): 0.83
[9]; protein POTEJ POTE ankyrin domain family member J, P0CG39
  Median SILAC Ratio (Heavy/Light): 1.199
[10]; P38646 HSPA9 Stress-70 protein, mitochondrial
  SILAC ratio (DMSO/CP-108671): 0.91
[10]; protein HSPA9 Stress-70 protein, mitochondrial (P38646), one column per replicate
  Median SILAC Ratio (Heavy/Light): 1.105
[11]
  SILAC ratio (DMSO/CP-108671): 0.65
[12]
  SILAC ratio (DMSO/CP-108671): 0.94
[13]
  SILAC ratio (DMSO/CP-108671): 0.65
[14]
  Median SILAC Ratio (Heavy/Light): 0.6969

## Cc1cc([C@H]2C[C@H]3[C@@H](C)SC(N)=N[C@@]3(c3ccc(F)cc3F)CO2)on1 [PF-9283]
[15]
  Median SILAC Ratio (Heavy/Light): 0.6384
[16]
  Median SILAC Ratio (Heavy/Light): 1.057
[17]
  Median SILAC Ratio (Heavy/Light): 0.2974
[18]
  Median SILAC Ratio (Heavy/Light): 0.6468 and 1.734
[19]
  Median SILAC Ratio (Heavy/Light): 1.388 and 0.9612
[20]
  Median SILAC Ratio (Heavy/Light): 2.061
[21]
  Median SILAC Ratio (Heavy/Light): 0.01102
[22]
  Median SILAC Ratio (Heavy/Light): 1.201 and 0.8242 and 0.9774
[23]
  Median SILAC Ratio (Heavy/Light): 126.519
[24]
  Median SILAC Ratio (Heavy/Light): 2.266 and 2.5408
[25]
  Median SILAC Ratio (Heavy/Light): 1.366 and 0.9279
[26]
  Median SILAC Ratio (Heavy/Light): 1.31 and 0.6734 and 0.9023
[27]
  Median SILAC Ratio (Heavy/Light): 0.7381
